Screen size: about 52,000 compounds; about 4,300 (8.3%) were called active. No stated cut-off is given here; in the data, active means survival mostly below about 52% (no sharp cut-off); inactive means mostly above about 56%. Some of the results follow.

Our source for the survival values is PubChem BioAssay AID463173 (ICCB-Longwood Screening Facility, Harvard Medical School, 2010).

The experiment concerns DeltatarO mutant. The experiment is described as follows: S. aureus survival, RN4220 and DeltatarO strains – OD600, teichoic acid synthesis inhibitors, primary screen (AID 463173). The note with it: S. aureus RN4220 wild type/DeltatarO growth, OD600, 18 h, active compounds read low, screened at 18.75 µg/mL (by protocol).
As for `Cc1ccccc1N(C)C(=O)c1noc2c1COc1ccccc1-2`, the survival was inactive: 72%.

With `CCOC(=O)c1ccc(NC(=O)Nc2ccc3snnc3c2)cc1`, the survival is inactive: 114%.

Turning to `C=Cn1cc[n+](CC(=O)c2ccc(OC)cc2)c1`, the survival was inactive: 77%.

Take `C#CCn1c(/C=C/c2ccc(Cl)cc2)nc2ccccc21`: the survival was active: 10%.

In the case of `COc1ccc(S(=O)(=O)NNC(N)=S)cc1`, the survival was inactive: 100%.

On to `Cc1ccccc1NC(=O)N1CCCC(c2nc(-c3ccc(F)cc3)no2)C1` (configuration not stated), for which the survival is inactive: 93%.

Regarding `CCN(c1ccc(OC)cc1)S(=O)(=O)c1nnc(NC(=O)COc2ccc(F)cc2)s1`, the survival is inactive: 70%.

For the compound `CC(C)CC(=O)NCC(c1ccc2c(c1)OCO2)N1CCN(c2ccccc2F)CC1` (configuration not stated), the survival is inactive: 67%.

With `Cc1ccc(-n2nc(C(=O)N3CCN(c4ccccc4F)CC3)c3c4ccccc4n(C)c3c2=O)cc1`, the survival is inactive: 88%.

As to `COc1cccc(CNC(=O)CN2N=C(c3ccc(C)cc3)CCC2=O)c1`, the survival was inactive: 83%.

Take `CCC(C(=O)N1CCN(c2cc(Cl)ccc2C)CC1)n1nc(C)c2sc3ccccc3c2c1=O` (configuration not stated): the survival was inactive: 60%.

Regarding `Cc1ccc(N(C)S(=O)(=O)c2ccc3c(c2)C(C)(C)C(=O)N3C)cc1C`, the survival is inactive: 80%.

On to `O=C(NCc1ccccc1Cl)c1cccn1-c1nnc(N2CCCCC2)s1`, for which the survival is inactive: 64%.

`CCN(CC)CCCNC(=O)CCCn1c(=O)[nH]c2ccc(Br)cc2c1=O`: the survival was inactive: 88%.

With `CC(=O)c1ccccc1NS(=O)(=O)c1cc2c(cc1C)NC(=O)CO2`, the survival is inactive: 105%.

Regarding `O=C(CCn1c(=O)c2cccn2c2cccnc21)NCc1ccccc1Br`, the survival is inactive: 81%.

Take `CCC(=O)Nc1ccc(C)cc1-c1nc2ccccc2n(C(C)C(=O)Nc2ccccc2CC)c1=O` (configuration not stated): the survival is inactive: 83%.

For the compound `CCC(CC)C(=O)Nc1ccc(C(=O)OCc2cc(=O)n3nc(C4CC4)sc3n2)cc1`, the survival was inactive: 80%.

Turning to `CN1C(=O)c2ccccc2Sc2ccc(NC(=O)Cc3c(F)cccc3Cl)cc21`, the survival was inactive: 84%.

Regarding `COc1ccc(Cn2cc(C(=O)c3ccc(C)c(C)c3)c(=O)c3ccccc32)cc1`, the survival is inactive: 72%.

As for `CCCCC12CN3CC(C)(CN(C1)C3c1ccc(O)c(OC)c1)C2=O` (configuration not stated), the survival was inactive: 70%.

Consider `CCOc1ccc(CCNC(=O)c2cc(C)nc3c2c(C)nn3-c2cccc(F)c2)cc1`, for which the survival is inactive: 96%.

On to `COc1ccc(CNCCC(c2ccc3c(c2)OCO3)c2ccccc2OC)cc1` (configuration not stated), for which the survival is active: 1%.

Take `O=C(Cn1cc(S(=O)(=O)Cc2cccc(Cl)c2)c2ccccc21)Nc1ccccc1Cl`: the survival is inactive: 68%.

With `COc1cccc(NC(=O)CSc2nccn2C2CCCC2)c1`, the survival was inactive: 67%.

For the compound `CC(CNC(=O)c1nnc(Cc2ccc(F)cc2)o1)c1ccccc1` (configuration not stated), the survival is inactive: 73%.

For the compound `Cc1ccc(-n2nc3c(=O)n(CC(=O)NCCC(C)C)nc(C)c3c2C)cc1`, the survival was inactive: 73%.

For the compound `COc1cc2ncc(C(=O)c3ccc(C)cc3)c(N3CCCCC3)c2cc1OC`, the survival was active: 2%.

Regarding `COCCCNC(=O)Cn1c(=O)nc(-c2ccccc2)c2ccccc21`, the survival is inactive: 78%.

For the compound `O=C1CC(NC2CC2)C(=O)N1c1ccccc1` (configuration not stated), the survival is inactive: 93%.

Turning to `O=C(NCc1cccc(Br)c1)c1ccc(NC(=O)N2CCCCc3ccccc32)cc1`, the survival was inactive: 87%.

Take `COc1ccc(N2CCN(Cc3nc4c(c(=O)[nH]c(=O)n4C)n3CC(C)C)CC2)cc1`: the survival is inactive: 123%.

As for `CCCCCCNc1nc(Oc2ccccc2)nc(Oc2ccccc2)n1`, the survival is inactive: 62%.

Take `NC(=O)C1CCN(C(=O)Cc2ccc(Cl)cc2)CC1`: the survival is inactive: 97%.

As to `Cc1ccc(S(=O)(=O)c2nnn3c2nc(NCCc2ccccc2)c2sccc23)cc1`, the survival is inactive: 65%.

Turning to `CC1CCN(c2nc3ccc(C(=O)NCc4ccccc4Cl)cc3s2)CC1`, the survival is inactive: 75%.

Turning to `O=C(NC1CCCC1)c1ccc2c(c1)N(Cc1ccccc1)C(=O)c1ccccc1S2`, the survival was inactive: 105%.

Turning to `COc1cccc(CNC(=O)Cc2c(C)c3ccc(OC)c(C)c3oc2=O)c1`, the survival is inactive: 54%.

Turning to `COc1ccc(C2=C(N3CCN(c4cccc(C)c4)C(C)C3)c3ccccc3C2=O)cc1` (configuration not stated), the survival is inactive: 51%.

On to `Cc1ccc(F)cc1NC(=O)Cn1c(C)cc(C)c(C#N)c1=O`, for which the survival is inactive: 126%.

Take `COCCCn1c(SCC(=O)N2CC(=O)Nc3ccccc32)nnc1-c1ccoc1C`: the survival is inactive: 79%.

`CCOc1ccc(C2c3[nH]c4ccccc4c3CCN2C(=O)CSCc2ccc(F)cc2)cc1` (configuration not stated): the survival was inactive: 97%.

Regarding `Cc1cccc(CNC(=O)c2ccc3nc(Cc4ccccc4)oc3c2)c1`, the survival was inactive: 124%.

Take `O=C(NCCc1ccccc1)c1nn(-c2ccc(F)cc2)nc1CO`: the survival was inactive: 108%.

On to `COc1ccc(NC(=O)CSc2nnc(NC(=O)NC3CCCCC3)s2)cc1OC`, for which the survival is inactive: 70%.

With `Cc1cc(S(=O)(=O)NCC(c2ccco2)S(=O)(=O)c2cccs2)ccc1F` (configuration not stated), the survival is inactive: 101%.

Regarding `Cc1ccc(CCNC(=O)c2c3c(nc4ccccc24)C(=O)N(C2CCCCC2)C3)cc1`, the survival was inactive: 98%.

Turning to `Cn1c(=O)oc2cc(S(=O)(=O)N3CCCC(C(=O)NCCc4ccccc4)C3)ccc21` (configuration not stated), the survival was inactive: 103%.

`CC(=O)c1ccc(NS(=O)(=O)c2ccc3[nH]c4c(c3c2)CCCC4)cc1`: the survival was inactive: 83%.

Regarding `Cc1ccccc1C(=O)Nc1c(C)nc2ccccn2c1=O`, the survival is active: 37%.

In the case of `Cc1ccc(CNC(=O)c2c[nH]n3c(=O)c(Cc4ccc(Cl)cc4)c(C)nc23)cc1`, the survival was active: -12%.

As for `CC1(C)NC(=O)N(CC(O)COc2ccc(N3C(=O)c4ccccc4C3=O)cc2)C1=O` (configuration not stated), the survival was inactive: 105%.

`CCc1ccc(S(=O)(=O)c2cn(Cc3ccccc3F)c3cc(OC)c(OC)cc3c2=O)cc1`: the survival is inactive: 70%.

Consider `Cc1ccc2[nH]c(=O)c(CNCCCO)cc2c1`, for which the survival is inactive: 80%.

With `Nc1ccc(N=C2C(=O)Nc3ccccc32)cc1`, the survival was inactive: 103%.

Take `COc1ccc(CNC(=O)Nc2ccc3c(c2)N(C)C(=O)c2ccccc2S3)cc1OC`: the survival was inactive: 61%.

Regarding `COc1cc(OC)c(NC(=O)CN2CCCN(Cc3ccccc3C)S2(=O)=O)cc1Cl`, the survival is inactive: 73%.

With `CCOc1ccc(CCNC(=O)CCCc2nnc3n(CC)c(=O)c4sccc4n23)cc1OCC`, the survival is inactive: 92%.

With `Cc1cccc(NC(=O)COc2ccc(-c3nn(C)c(=O)c4ccccc34)cc2)c1`, the survival was inactive: 50%.

As for `Cc1ccc(NC(=O)Cn2c(=O)n(Cc3nc(-c4ccccc4)no3)c(=O)c3ccccc32)cc1C`, the survival was inactive: 76%.

As for `COC(=O)c1ccccc1NC(=O)CSc1nc(=O)cc(N)n1-c1ccccc1`, the survival was active: 38%.

`Cc1coc2cc3oc(=O)c(CC(=O)NCc4cccc(Cl)c4)c(C)c3cc12`: the survival was inactive: 88%.

As for `Cc1ccc(CNC(=O)c2c(-c3ccccc3Cl)noc2C)o1`, the survival is inactive: 91%.

As to `Cc1ccc(CNC(=O)c2ccc(Cn3c(=O)c4ccccc4n(CC(=O)Nc4ccc(C)cc4)c3=O)cc2)cc1`, the survival was inactive: 88%.

As for `Cc1cccc(NC(=O)Cn2cc(C(=O)c3ccco3)c3ccccc32)c1`, the survival is inactive: 88%.

Take `Cc1ccccc1OCCn1c(-c2ccc(Cl)cc2)nc2ccccc2c1=O`: the survival is inactive: 57%.

With `O=C1CN(Cc2ccccc2)C(=NCc2ccco2)S1`, the survival is inactive: 116%.

As for `CC1CCN(CC(=O)N2CCN(c3ccccc3)CC2)CC1`, the survival was inactive: 101%.

As for `O=C(NCCc1ccccc1)c1ccc(Cl)nc1`, the survival is inactive: 100%.

Regarding `CC(C)C1Oc2ccccc2N(CC(=O)N(C)C2CCCCC2)C1=O` (configuration not stated), the survival is inactive: 95%.

Turning to `COc1cc(OC)c(NC(=O)CCc2c(C)nc3ncnn3c2C)cc1Cl`, the survival was inactive: 97%.

On to `CCn1c(CN2CCC(C)CC2)nc2cc(NC(=O)COc3ccc(Cl)c(C)c3)ccc21`, for which the survival was inactive: 72%.

With `CN(Cc1ccccc1)c1ccc(-c2nc(-c3ccccn3)no2)cc1[N+](=O)[O-]`, the survival is active: 34%.

In the case of `COc1cccc(N2CCN(C(=O)c3cc4cc5cc(C)ccc5nc4s3)CC2)c1`, the survival is inactive: 105%.

Regarding `CCc1ccc(-n2c(SCc3ccccc3Cl)nc3[nH]ncc3c2=O)cc1`, the survival was inactive: 102%.

As to `CCC(=O)N1c2ccccc2CC1C(=O)NCc1ccccc1Cl` (configuration not stated), the survival is inactive: 69%.

Consider `Cc1cccc(NC(=O)CCn2cnnn2)c1C`, for which the survival is inactive: 93%.

With `CCOC(=O)c1c(C)[nH]c(C)c1S(=O)(=O)N1CCCC(C(=O)NCc2ccc(Cl)cc2)C1` (configuration not stated), the survival is inactive: 80%.

Turning to `CCOCCCNC(=O)CN1C(=O)COc2ccc(S(=O)(=O)N3CCCC3)cc21`, the survival was inactive: 87%.

For the compound `COc1ccccc1Nc1cc(C(=O)NC2CCC(C)CC2)c2ccccc2n1` (configuration not stated), the survival is inactive: 74%.

As for `O=C(Nc1ccc2oc(-c3ccncc3)nc2c1)c1ccccc1Cl`, the survival is inactive: 68%.

For the compound `Cc1oc(-c2ccc(Cl)cc2)nc1CSc1nc2ncccc2[nH]1`, the survival is inactive: 94%.

As for `O=C(OCc1cc(=O)n2nc(C3CCCCC3)sc2n1)c1ccc(F)cc1`, the survival was inactive: 79%.

`COC(=O)c1c(NC(=O)/C(C#N)=C/c2ccccc2)sc2c1CCC2`: the survival was inactive: 55%.

In the case of `CCOc1ccc(NC(=O)c2sc3nc4c(c(-c5ccc(OC)cc5)c3c2N)C(=O)CC(C)(C)C4)cc1`, the survival is inactive: 56%.

As to `CCOc1ccc(-n2cc(-c3ccccc3)c3c(N4CCN(c5ccccc5OC)CC4)ncnc32)cc1`, the survival was inactive: 75%.

With `CCCCN(CC)C(=O)CSc1c2c(nc3ccc(Cl)cc13)CCCC2`, the survival is active: -2%.

For the compound `O=C(Nc1cccc(Cl)c1)c1ccc2c(c1)CCN2S(=O)(=O)c1ccccc1`, the survival was active: 41%.

Take `COc1ccc(-c2noc(-c3cccnc3N3CCN(c4ccc(OC)cc4)CC3)n2)cc1`: the survival is inactive: 51%.

Consider `O=C(COCc1cc(-c2cccs2)on1)N1CCN(c2cccc(Cl)c2)CC1`, for which the survival is active: 37%.

As for `Fc1cccc(-c2nnn3c2nc(NCCc2ccccc2)c2ccccc23)c1`, the survival was inactive: 115%.

With `O=C(CCn1c(=O)c2cccn2c2cccnc21)N1CCN(c2ccccc2F)CC1`, the survival was inactive: 75%.
